Laboratory results: patent US20230340054A1 (published 2023)

T1: human IL-2Rα (CD25), recombinant, biotinylated (human, UniProt P01589 22-213, limits assumed, biotinylated (site not stated))
T1 construct: also called human CD25 (IL-2Rα) receptor
T1 sequence (looked up): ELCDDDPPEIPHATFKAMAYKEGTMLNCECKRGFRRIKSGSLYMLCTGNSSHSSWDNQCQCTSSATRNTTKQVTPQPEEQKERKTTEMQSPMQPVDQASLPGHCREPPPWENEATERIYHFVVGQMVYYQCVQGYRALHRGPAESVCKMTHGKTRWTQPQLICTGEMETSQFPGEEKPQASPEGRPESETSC

T2: human IL-2Rβ (CD122), recombinant, biotinylated (human, UniProt P14784 27-239, limits assumed, biotinylated (site not stated))
T2 sequence (looked up): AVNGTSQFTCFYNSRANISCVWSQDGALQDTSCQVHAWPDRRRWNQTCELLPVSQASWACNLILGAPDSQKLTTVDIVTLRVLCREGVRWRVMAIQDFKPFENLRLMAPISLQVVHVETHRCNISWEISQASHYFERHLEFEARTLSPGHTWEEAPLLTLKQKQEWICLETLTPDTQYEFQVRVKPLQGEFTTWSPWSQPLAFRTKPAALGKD

B1: IgG fusion IL-2 mutein P65N (other)
chain: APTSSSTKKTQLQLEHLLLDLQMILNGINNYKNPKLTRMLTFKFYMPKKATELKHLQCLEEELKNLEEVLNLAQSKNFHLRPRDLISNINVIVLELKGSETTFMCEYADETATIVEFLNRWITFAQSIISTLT
B2: IgG fusion IL-2 mutein E68Y (other)
chain: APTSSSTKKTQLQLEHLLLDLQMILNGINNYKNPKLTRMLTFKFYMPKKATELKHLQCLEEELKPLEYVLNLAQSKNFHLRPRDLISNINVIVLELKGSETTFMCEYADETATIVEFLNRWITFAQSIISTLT
B3: IgG fusion IL-2 mutein I92Y (other)
chain: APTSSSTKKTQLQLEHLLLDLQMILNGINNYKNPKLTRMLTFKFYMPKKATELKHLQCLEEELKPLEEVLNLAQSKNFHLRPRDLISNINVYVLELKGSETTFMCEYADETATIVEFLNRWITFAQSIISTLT
B4: IgG fusion IL-2 mutein M23L (other)
chain: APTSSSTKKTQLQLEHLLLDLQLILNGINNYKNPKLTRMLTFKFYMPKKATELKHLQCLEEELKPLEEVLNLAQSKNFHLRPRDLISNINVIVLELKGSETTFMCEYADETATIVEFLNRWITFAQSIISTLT

Molecular target: T1, human IL-2Rα (CD25), recombinant, …
Test: BLI

| Binder | Kd [nM] | koff [s⁻¹] | kon [M⁻¹ s⁻¹] |
| --- | --- | --- | --- |
| B1 | 17.1 | 0.000791 | 46300 |
| B2 | 59.5 | 0.0578 | 971000 |
| B3 | 21.3 | 0.0185 | 871000 |
| B4 | 19.4 | 0.0148 | 766000 |

Molecular target: T2, human IL-2Rβ (CD122), recombinant, …
Test: BLI

| Binder | Kd [nM] | koff [s⁻¹] | kon [M⁻¹ s⁻¹] |
| --- | --- | --- | --- |
| B1 | 6460 | 6.95 | 1.08e+06 |
| B2 | 213 | 0.0763 | 358000 |
| B3 | 396 | 0.101 | 255000 |
| B4 | 1400 | 0.121 | 86700 |
